Data as given in PMC12136788.
The other results are listed elsewhere or left out.

T1: UNK ZnF1-3 (human, UniProt Q9C0B0 31-174)
T1 sequence: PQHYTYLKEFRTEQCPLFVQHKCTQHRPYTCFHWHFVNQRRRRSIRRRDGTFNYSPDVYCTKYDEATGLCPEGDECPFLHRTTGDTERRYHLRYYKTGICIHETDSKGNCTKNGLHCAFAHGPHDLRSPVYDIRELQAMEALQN

B1: chr4:40633508:40633509:-_ENSMUSG00000028411_ENSMUST00000129021|mus_hu|FALSE|FALSE (ssRNA)
RNA: GGGAGUUCUACAGUCCGACGAUCGCUGCAUGUUUUAAUUUAGGAAAUGAGUAGAAGUUCACAAGCAACCCAGAAUAGGUGCCAGCAGUUUGCUCCAGUGGGCCACACCACAGCAGCAGCUCAGGCUCUGCAGAAUCACUGUGUCAACAGAGGAUUGAGCAUCA
B2: 46776515_46780490_4841_CDS_ENSG00000175216_ENST00000415402|human|control|control (ssRNA)
RNA: GGGAGUUCUACAGUCCGACGAUCGUUGUAGAUGAGUCUUAGCUGCAUAAAAGUGGCUAUCAGAAACUGAUCAAUAUGGCCGGACAUGGCUUCAGCUUUGUCUUCCUGUCUCAGGACCUCAUCGAUCUGUGUCAGAGCUUGGAUCAACAGAGGAUUGAGCAUCA
B3: chr11:85023558:85023559:-_ENSMUSG00000018481_ENSMUST00000018625|mus_mus|motif|central (ssRNA)
RNA: GGGAGUUCUACAGUCCGACGAUCGCCAUGUUUAGACAGCUUAUCCAUGUAUGUCUGAGCUAAUUUAAAUGUUUCUUCACCGGGAUGAUAUUUACAAUUUCCAUUUCGCACAUGAAGCAACCUCACACAACACUCCACUGCUCGCAACAGAGGAUUGAGCAUCA
B4: 18847280_18847400_8384_CDS_ENSG00000157106_ENST00000446231|human|control|control (ssRNA)
RNA: GGGAGUUCUACAGUCCGACGAUCUACUGUGGUGUUACAGAUGAGCUCUUCCAUCCAGGUCUUCCACUGUUCAAUUCGAUGUUUCUGAAAUAUGGCCUUCGGAUACUGCAGGGCCACGGUUGCAUAGUGAUGCAGUUGCUCCAGCAACAGAGGAUUGAGCAUCA
B5: chr11:87793471:87793472:-_ENSMUSG00000020483_ENSMUST00000020775|mus_mus|mus_mus_mus_hu_False|1_28 (ssRNA)
RNA: GGGAGUUCUACAGUCCGACGAUCUGGACUUGAAAAUAAAAGAAUAAGCUGGAUCCCCCACCCCCCCACAUUGUCAACCCUACACGAGAGUUUUGAAGGCGACUCAUGAAUCAGCAGAGCUCAAACGGCAAUGACCACCCACCCCAACAGAGGAUUGAGCAUCA
B6: 108228037_108228157_4863_CDS_ENSMUSG00000034610_ENSMUST00000043368|mouse|control|control (ssRNA)
RNA: GGGAGUUCUACAGUCCGACGAUCAGGAAAGUUAUACAAGGGCAUCUGAACCUGAUGAGGGGGCUGCCCUCCCUGCUGGGGUGGGCCAAGCUUAGGCUGGGAUCCUGGCUGGGAUGGAGGUGGGGGAAGAGCAGAUGGUUGGGGCAACAGAGGAUUGAGCAUCA
B7: 40924092_40924212_921_CDS_ENSMUSG00000028423_ENSMUST00000030133|mouse|control|control (ssRNA)
RNA: GGGAGUUCUACAGUCCGACGAUCUGGUCUUUCUCUAAGAUUAUCCUUUGGAAUGGGGGACAUGUUGGUUUUGGGCCCUGCAUUUAUAUGCCGCUGACUCUCCUGUUUUGGUGGGUUCCUGCCUGGCCGUGGUCUGGCCCCUUCCAACAGAGGAUUGAGCAUCA
B8: chr14:89307221:89307222:+_ENSG00000165533_ENST00000346301|hu_mus|hu_hu_hu_mus_False|38_88 (ssRNA)
RNA: GGGAGUUCUACAGUCCGACGAUCUCCUGUUUGGUUAGUGCCAGGGAGUUUCAAAGAUGUGCCAGGGCGUGGGACCUGAGCAAUAGCAUUUUCAUCCAGCAUCAUUUCAGCAAUUCCUUCCUGGUCCACAUCAAUUUCAUCUAUCAACAGAGGAUUGAGCAUCA
B9: chr17:60770872:60770873:+_ENSG00000011028_ENST00000303375|hu_hu|hu_hu_hu_mus_True|8_28 (ssRNA)
RNA: GGGAGUUCUACAGUCCGACGAUCUCUUUAAAAAAAAAAAAAAAAAGACAAACAAUAAUAGCACAUUUCGAGAAUCAAGAACUACAAUAGAGGGUCCGCUUUGAGUUGUCCAUGUUCUCGUCCUGCAACGCUGUCGCGGGACUGCAACAGAGGAUUGAGCAUCA
B10: 61722688_61724073_1616_CDS_ENSG00000082898_ENST00000401558|human|control|control (ssRNA)
RNA: GGGAGUUCUACAGUCCGACGAUCCUGUUCAUCAUCUUUUCCAUUUGAGUACGCAAGUCGAAUAUUGGUAUUUAAAGGAAGCAUCUGCUUUAGUUGCAUCAUUGUCAGAGUAAAUAGUGUUACAAAUUGUUCUUCAUAUUGGCUCAACAGAGGAUUGAGCAUCA
B11: chr22:32879901:32879902:+_ENSG00000100225_ENST00000397426|hu_mus|hu_hu_hu_mus_False|1_78 (ssRNA)
RNA: GGGAGUUCUACAGUCCGACGAUCCUCUUCCAUACUCAUGGCAUCCUGAAUUGACUCAGCUUCAAAAUUUUGACUAGGCCCUUCCAUACUGUCAUCAGUCCAGGCAUCAAAUGGGGUGGCCUGUCCUUGGGAUGAAUCACUUGGCAACAGAGGAUUGAGCAUCA
B12: chrX:20248820:20248821:+_ENSMUSG00000001924_ENSMUST00000001989|mus_mus|motif|central (ssRNA)
RNA: GGGAGUUCUACAGUCCGACGAUCGGCAAAGUCAGUCAUCACAAAGUCAGGCUCUACCAGUGAUGCUGGCAAGGAUUUAAAACGGAUCUUUUUCGGUACUUUGACCUGACUGACGAUGCCUCCACGGAUGUAGUCAGAGAAGUUCAACAGAGGAUUGAGCAUCA
B13: 74043533_74046451_841_CDS_ENSG00000164347_ENST00000509430|human|control|control (ssRNA)
RNA: GGGAGUUCUACAGUCCGACGAUCCAUCUUGUUUAAAAAACAGAUUCGAGGUAUAUUGUGUUUAUCAGCUUGCCUCCAUACUGUGAGAGUCUGGGCCUCUACACCAGCAGAGGCAUCAAAUACAGCCACUGCACCAUCCAACACCAACAGAGGAUUGAGCAUCA
B14: chr1:40030818:40030819:+_ENSMUSG00000026074_ENSMUST00000163854|mus_hu|FALSE|FALSE (ssRNA)
RNA: GGGAGUUCUACAGUCCGACGAUCUGGAGGGCUCUUUUUGAUGAAAGCACCAUAAUAUGUUGCAAUGUUUCUGUGAUGAGAGUAUUUCUUUAGCAUAUUUAUCUCCAGUUUGAUUUCUUCCUCUUCAUCCUCAGUGACAUCCAUCAACAGAGGAUUGAGCAUCA
B15: chr9:95013113:95013114:-_ENSG00000196305_ENST00000443024|hu_hu|hu_hu_hu_mus_False|88_108 (ssRNA)
RNA: GGGAGUUCUACAGUCCGACGAUCCUCAGUGAGAAAAGGCGUGUAAGGAGCCAUAAGUCUGCACAGAGAAAGCAGGACACUGAACAGUGUCUCCAGAGCCAUGACACAGUCUUCCACCCCACUCUCACCCUUUAACCUCCUCCUCAACAGAGGAUUGAGCAUCA
B16: 46797107_46800128_1708_CDS_ENSMUSG00000021374_ENSMUST00000021803|mouse|control|control (ssRNA)
RNA: GGGAGUUCUACAGUCCGACGAUCCUCAUUCUCUGGAGGUUUAGGAGCAACAAAAUGUGUUCUCUCUCUUCUCAUCUUGCCACCUCCACCACCUACUCCAGAAGAUAAACCAUUGGCUGCAGGAAUACUGAAAUUGGGGUAUGACAACAGAGGAUUGAGCAUCA
B17: 36558831_36558951_1026_CDS_ENSG00000116863_ENST00000373178|human|control|control (ssRNA)
RNA: GGGAGUUCUACAGUCCGACGAUCCAGGAUGUCUGUCUCCUCGUAGCCUUCACAGCUUUGCUGCCAGCUCUCUGGCACCUGAUCCAUCCCAUAGUAGGCACCAGCAAUGGCCCCAGCCAUGGUGGCAAUGGUGUCUGUGUCCCCCAACAGAGGAUUGAGCAUCA
B18: chr1:220276048:220276049:+_ENSG00000067704_ENST00000302637|hu_hu|hu_hu_hu_mus_True|18_48 (ssRNA)
RNA: GGGAGUUCUACAGUCCGACGAUCGCAAAUUGCCUGGUUGGCGGGAAUUGUCCAAGGCUGGGUGGUCCAAACUAAAACGCUAACAGGAGAUGAACCAUCUGUAAGAGACUCCAACUUUGGAGAAGGCCUCAGGAGGGGGAAUCUCAACAGAGGAUUGAGCAUCA
B19: 58754496_58754698_3163_CDS_ENSMUSG00000032340_ENSMUST00000068664|mouse|control|control (ssRNA)
RNA: GGGAGUUCUACAGUCCGACGAUCGCUUGACCUUCUGCCUUUGGUCACCAUCACAGAGAACUCAUAGAGCGUAUUUGGCUUUAAACCAGUAACCAAAUAGCUUAACGUCGUUGCAUUUGCAUUCUUGUACUUCGUGUUUGCUGGCAACAGAGGAUUGAGCAUCA
B20: chr5:118832277:118832278:+_ENSG00000133835_ENST00000256216|hu_hu|FALSE|FALSE (ssRNA)
RNA: GGGAGUUCUACAGUCCGACGAUCUGUUGCUGUAGACGUUGCACGACUAGUAUGAUUUGCUGAAACUCCUCCUUCUGAAUCUAUUUUACUCAGAACUUCAAUUAUACUGCCAGUUGAUUCUUGGAUACUCUGAGGCUUGCUGGCCAACAGAGGAUUGAGCAUCA
B21: chr1:16453270:16453271:-_ENSMUSG00000025920_ENSMUST00000027052|mus_hu|FALSE|FALSE (ssRNA)
RNA: GGGAGUUCUACAGUCCGACGAUCUUAUACUGCUGCCUUCGGAUUCCCAUGUCUGCUCACCAAGACUCAGCUGCACUGAGAACAUCUGAUUUAUUUGAAGCAUGUUAAGACAAUAUUGACCAAACUGCUGUAUCCCUCACGGCUCAACAGAGGAUUGAGCAUCA
B22: chrX:117107323:117107324:-_ENSG00000003096_ENST00000371878|hu_mus|FALSE|FALSE (ssRNA)
RNA: GGGAGUUCUACAGUCCGACGAUCUUUGAGCUGCAACAGUACAAAUGGGAUAUAAACCUCAGCAUAGCCUUAGGCCACAGCUAAUAGAGAUCAGUGACUAAAUUCAGCAGCCCGCUUUCCUCCUGUGAAAGCUCUGGCCACACACAACAGAGGAUUGAGCAUCA

Molecular target: T1, UNK ZnF1-3
Assay: nsRBNS (natural sequence RNA bind-n-seq); RBNS binding buffer (assumed for nsRBNS): 25 mM Tris pH 7.5, 150 mM KCl, 3 mM MgCl2, 0.01% Triton X-100, 500 ug/ml BSA, 20 U/ml SUPERase-In, 4 C; UNK is unkempt and MSI1 is Musashi-1; names of the RNAs are library labels; protein concentration not given here; high values mean tight binding

Binder	binding signal
B1	1.45 enrichment R
B2	0.911 enrichment R
B3	0.929 enrichment R
B4	0.854 enrichment R
B5	2.28 enrichment R
B6	2.15 enrichment R
B7	0.484 enrichment R
B8	1.01 enrichment R
B9	2.06 enrichment R
B10	1.03 enrichment R
B11	1.13 enrichment R
B12	0.622 enrichment R
B13	0.731 enrichment R
B14	0.807 enrichment R
B15	1.4 enrichment R
B16	1.32 enrichment R
B17	0.677 enrichment R
B18	1.79 enrichment R
B19	0.653 enrichment R
B20	0.618 enrichment R
B21	1.32 enrichment R
B22	0.959 enrichment R
